Laboratory results taken from PubChem BioAssay (NCI).
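Where inhibition never reached the appropriate level, the endpoint shown equals the highest concentration tested. Otherwise, values were interpolated linearly from a five-concentration, 48-hour dose response in 96-well plates. At the GI50, growth is halved.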 Certain results were filed several times, with different values. The other results are left out here. The source may hold further records. For part of these data: Values given together are repeats in other runs, samples, wells, individuals or studies. What stands in brackets tells the records apart. Letters count within one entry.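 Definition used: TGI = concentration required for complete inhibition of growth.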 For part of these data: The tests behind the records often covered other concentration ranges, which the source does not state; some values may only mark the edge of a range. Where a SMILES comes first, the peptide text is derived from it. The star is where a group is joined. Boc = CC(C)(C)OC(=O)*

Key:
Assay in all cases: NCI tumour cell line growth inhibition, 48 h
K-562 leukemia = test system: K-562 leukemia
CCRF-CEM leukemia = test system: CCRF-CEM leukemia
HCT-116 colon = test system: HCT-116 colon
NCI-H522 lung = test system: NCI-H522 lung
TK-10 renal = test system: TK-10 renal
IGROV1 ovarian = test system: IGROV1 ovarian
T-47D breast = test system: T-47D breast
KM20L2 colon = test system: KM20L2 colon
SR leukemia = test system: SR leukemia
XF 498 CNS = test system: XF 498 CNS

## CC1(Br)Cc2ccccc2C1=O (configuration not stated)
K-562 leukemia
  TGI: 9.12 µM and > 100 µM

## COC(=O)C(C)NC(=O)C(CCSC)NC(=O)C(Cc1ccccc1)NC(=O)OC(C)(C)C (stereo not drawn) (Boc-Phe-Met-Ala-OMe; configuration not given here)
CCRF-CEM leukemia
  TGI: 14.2 µg/mL [sample A] and > 100 µM [sample B]
HCT-116 colon
  TGI: 32 µg/mL [sample A] and > 100 µM [sample B]
NCI-H522 lung
  TGI: 29.6 µg/mL [sample A] and > 100 µM [sample B]
TK-10 renal
  TGI: 19.7 µg/mL [sample A] and > 100 µM [sample B]

## CN(C)C/C=C/C(=O)Nc1cc2c(Nc3ccc(F)c(Cl)c3)ncnc2cc1O[C@H]1CCOC1
IGROV1 ovarian
  GI50: 271 nM [sample A, mean of 2 tests] and 8.81 nM [sample B, mean of 2 tests]
T-47D breast
  GI50: 711 nM [sample A, mean of 2 tests] and 29.6 nM [sample B, mean of 2 tests]
TK-10 renal
  TGI: 151 nM [sample A, mean of 2 tests] and > 6.33 µM [sample B, mean of 2 tests]

## C/C(=N\NC(=S)N1CCCCCC1)c1ccccn1
CCRF-CEM leukemia
  TGI: 394 nM and > 81 µM
KM20L2 colon
  TGI: 18.6 nM and 1.03 µM
SR leukemia
  TGI: 2.67 µM and > 100 µM
XF 498 CNS
  TGI: 32.7 nM and 1.78 µM
